Source: PubChem BioAssay AID624417 (National Center for Advancing Translational Sciences (NCATS), 2012)
“And” between values parts separate entries of the source, which are not always exact repeats. Equal values may be shown once. The whole screen tested about 410,000 compounds, of which about 6,400 (1.6%) were called active. Inconclusive means that the source gave no clear call. Such entries were picked first, then a sample of the others. Calls come from the whole dose curve; as a rule, active = well fitted inhibition curve with a large enough effect; inconclusive = small, poorly fitted or top-dose-only effect; inactive = no such curve, though single readings can be large or run the other way. Where the call is inconclusive, the potency comes from a doubtful curve fit.

These compounds were tested against Glucagon-like peptide 1 receptor (Homo sapiens) (UniProt P43220) (assay: qHTS of GLP-1 Receptor Inverse Agonists (Inhibition Mode)). Conditions: HEK293 GLP-1R CRE-luciferase, luminescence, 24 h, GLP-1R form is constitutively active; activity change, negative = inhibition: at 38.3 µM (top of the series) unless noted.
Outline: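 Stable HEK293 clone (constitutively active GLP-1R + cAMP-response luciferase); 200 cells/uL plated, 12 h pre-culture, compound 24 hr, 37 deg C/5% CO2; detection reagent 12 min RT; luminescence.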
% is set by controls: 0 for no effect and ±100 for the full control effect; potency is the fitted concentration of half-maximal effect; tags give direction and shape of the fitted curve.
Note: nearly all actives have a fitted effect of over 55% in size.

Sequence of UniProt P43220 (P43220 whole entry, looked up): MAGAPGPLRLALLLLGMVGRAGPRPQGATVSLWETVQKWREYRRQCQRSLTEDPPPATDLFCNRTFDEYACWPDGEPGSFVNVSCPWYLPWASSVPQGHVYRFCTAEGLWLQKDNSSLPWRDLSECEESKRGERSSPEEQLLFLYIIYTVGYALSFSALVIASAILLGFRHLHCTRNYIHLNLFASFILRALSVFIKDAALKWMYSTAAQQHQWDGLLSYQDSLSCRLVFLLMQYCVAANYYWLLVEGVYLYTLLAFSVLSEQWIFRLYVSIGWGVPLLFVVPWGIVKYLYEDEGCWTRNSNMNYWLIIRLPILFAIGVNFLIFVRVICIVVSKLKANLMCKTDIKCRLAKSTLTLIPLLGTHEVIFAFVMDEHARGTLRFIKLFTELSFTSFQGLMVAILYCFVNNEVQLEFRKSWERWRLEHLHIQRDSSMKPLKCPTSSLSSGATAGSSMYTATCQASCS

| Compound | Potency | activity change, negative = inhibition |
| --- | --- | --- |
| COC(=O)C(C(=O)Nc1ccc(OC)cc1)C1CCCCCC1 (stereo not given) | inconclusive: 10 µM [inhibitor, partial curve, poor fit] | – |
| CCOC(=O)c1cccc(NC(=O)COc2nsnc2N2CCOCC2)c1 | inconclusive: 10 µM [inhibitor, partial curve] | – |
| Cc1ccc(Nc2ncnc3c2nnn3Cc2ccccc2)cc1 | – | inactive: -29.9% |
| O=C(CC1Sc2ccc(C(F)(F)F)cc2NC1=O)Nc1ccc(Cl)c(C(F)(F)F)c1 (stereo not given) | inconclusive: 11.2 µM [inhibitor, single point] | – |
| CC(C)(C)NC(=O)NC(=O)CN1C(=O)NC(c2ccccc2)(c2ccccc2)C1=O | inconclusive: 10 µM [inhibitor, partial curve, poor fit] | – |
| CCN1CCN(c2cc(C)c3cc(NC(=S)N4CCCC4)ccc3n2)CC1 | inconclusive: 28.2 µM [inhibitor, single point] | – |
| CC(C)C(=O)N1CCN(c2nc(-c3ccccc3)c3c(c2C#N)CCCC3)CC1 | inconclusive: 7.08 µM [inhibitor, partial curve, poor fit] | – |
| O=P(NCc1ccccc1)(OCc1ccccc1)OCc1ccccc1 | inconclusive: 22.4 µM [inhibitor, single point] | – |
| OCCC1CN(Cc2cnc(-c3ccc(Cl)cc3)nc2)CCN1C1CCCCC1 (stereo not given) | inconclusive: 7.94 µM [inhibitor, partial curve, poor fit] | – |
| Cc1ccc(C)c(NC(=O)CN(C)C(=O)c2ccc(-c3cccc(C(F)(F)F)c3)o2)c1 | inconclusive: 11.2 µM [inhibitor, partial curve] | – |
| CCOC(=O)C1CCCN(c2ncnc3c2cnn3-c2ccc(Cl)cc2)C1 (stereo not given) | inconclusive: 28.2 µM [inhibitor, single point] | – |
| COC(=O)C(Cc1cccc(C)n1)(c1ccccc1)c1ccccc1 | inconclusive: 10 µM [inhibitor, partial curve, poor fit] | – |
| N#Cc1ccc(C(=O)NC(=S)N2CCOCC2)cc1 | inconclusive: 28.2 µM [inhibitor, single point] | – |
| Cc1ccc(CN2CCN(/N=C\C(Br)=C\c3ccccc3)CC2)cc1 | inconclusive: 11.2 µM [inhibitor, partial curve, poor fit] | – |
| CCN(Cc1ccccc1)C(=O)c1cc(COc2c(F)cccc2F)on1 | inconclusive: 7.94 µM [inhibitor, partial curve, poor fit] | – |
| COc1cc(C(=O)Nc2cc3c(cc2C)n(C)c(=O)c(=O)n3C)cc(OC)c1OC | – | inactive: 5.62% |
| Cc1ccc(-n2cc(CN3CCN(c4ccccn4)CC3)c(-c3ccc(F)cc3)n2)cc1 | inconclusive: 17.8 µM [inhibitor, single point] | – |
| COc1ccc(C(=O)N2[C@@H](C(C)C)COc3cc(Br)ccc3S2(=O)=O)cc1 | inconclusive: 8.91 µM [inhibitor, partial curve, poor fit] | – |
| COc1ccc2c(c1)OC[C@H]1[C@H]2N2C(=O)CN(Cc3ccco3)C(=O)[C@@]2(C)[C@H]1c1ccccc1 | inconclusive: 28.2 µM [inhibitor, single point] | – |
| O=C(NCc1cccc(F)c1)c1noc2c1CCCC2 | inconclusive: 11.2 µM [inhibitor, partial curve, poor fit] | – |

| Compound | Potency | activity change, negative = inhibition |
| --- | --- | --- |
| O=C(Nc1ccn(Cc2cccc3ccccc23)n1)c1cccnc1 | inconclusive: 11.2 µM [inhibitor, partial curve, poor fit] | – |
| O=C(COc1cccc(C(F)(F)F)c1)Nc1ccccc1N1CCCCC1 | – | inactive: 7.39% |
| COC(=O)C(Cc1ccccc1)NC(=O)C(CC(C)C)NC(=O)OC(C)(C)C (stereo not given) | – | inactive: -17% |
| O=S(=O)(NCCCCCNS(=O)(=O)c1ccc(F)cc1)c1ccc(F)cc1 | inconclusive: 8.91 µM [inhibitor, partial curve, poor fit] | – |
| O=C(NCc1ccc(Cl)cc1)[C@@H]1CCCN1S(=O)(=O)c1ccc(Cl)cc1 | inconclusive: 11.2 µM [inhibitor, partial curve] | – |
| O=S(=O)(c1ccc(NC(=S)N2CCN(c3ccc(O)cc3)CC2)cc1)N1CCOCC1 | inconclusive: 7.94 µM [inhibitor, partial curve, poor fit] | – |
| COc1cc(OC)c(NC(=O)CN2C(=O)CCn3nc(-c4cccn4C)cc32)cc1Cl | – | inactive: -0.771% |
| COc1ccc(/C=C/c2ccccc2)cc1[C@H]1[C@@H]2C=CCC[C@@]2(C)C(=O)N1Cc1ccccc1 | inconclusive: 14.1 µM [inhibitor, single point] | – |
| Cc1cc(=O)n(Nc2ccccc2)c(O)c1C#N | inconclusive: 8.91 µM [inhibitor, partial curve, poor fit] | – |
| Cc1ccc2c(c1)C1CN(C)CCC1N2C(=S)Nc1ccc(Cl)cc1Cl (stereo not given) | inconclusive: 11.2 µM [inhibitor, single point] | – |
| CCOc1ccc(NC(=O)c2cc3n(n2)C(C(F)(F)F)CC(c2ccco2)N3)cc1 (stereo not given) | inconclusive: 1.58 µM [inhibitor, partial curve, poor fit] | – |
| O=C(COc1ccccc1)Nc1ccccc1NS(=O)(=O)c1cccs1 | inconclusive: 7.94 µM [inhibitor, partial curve, poor fit] | – |
| CCOc1cc(/C=C/C(=O)c2ccc(O)cc2)ccc1OCC(=O)N(C)C | inconclusive: 31.6 µM [inhibitor, single point] | – |
| CCOc1ccc(/C=C/c2nc(C#N)c(N3CCN(c4ccc(OC)cc4)CC3)o2)cc1 | – | inactive: 10.3% |
| c1cc2c(cc1C1CCCN1)OCCCO2 (stereo not given) | – | inactive: 4.04% |
| Cc1ccc(NC(=O)C(C)OC(=O)CCC2CCCCC2)cc1 (stereo not given) | inconclusive: 31.6 µM [inhibitor, partial curve, poor fit] | – |
| COc1cc2c(OC(C)=O)c3c(c(-c4ccc5c(c4)OCO5)c2cc1OC)C(=O)OC3 | inconclusive: 2.82 µM [inhibitor, full curve] | – |
| Cc1ccc(C(=O)CSc2nnc3ccccn23)c(C)c1 | inconclusive: 14.1 µM [inhibitor, partial curve, poor fit] | – |
| c1ccc(-n2ncc3c(NC4CCCC4)ncnc32)cc1 | inconclusive: 10 µM [inhibitor, single point] | – |
| CCc1cccc(NC(=O)Nc2ccc3c(c2)N(C)C(=O)c2ccccc2S3)c1 | inconclusive: 8.91 µM [inhibitor, partial curve, poor fit] | – |

| Compound | Potency | activity change, negative = inhibition |
| --- | --- | --- |
| O=C(Nc1ccccc1N1CCCC1)c1cc2ccccc2o1 | inconclusive: 12.6 µM [inhibitor, partial curve, poor fit] | – |
| O=C(COc1ccccc1)NCc1ccc2c(c1)CCN2C(=O)c1ccc(F)cc1 | inconclusive: 28.2 µM [inhibitor, single point] | – |
| Cc1ccc(Cn2c(=O)c3cccnc3n(CC(=O)Nc3cccc(C(F)(F)F)c3)c2=O)cc1 | inconclusive: 14.1 µM [inhibitor, single point] and inconclusive: 31.6 µM [inhibitor, partial curve, poor fit] | – |
| C[C@@H]1CCCCO[C@H](CN(C)Cc2ccc(C(F)(F)F)cc2)[C@H](C)CN([C@@H](C)CO)C(=O)c2cc(NC(=O)Cc3ccccc3)ccc2O1 | active: 2.82 µM | – |
| COCCn1nnnc1C(C(C)C)N(Cc1cccnc1)Cc1ccccc1Cl (stereo not given) | inconclusive: 0.501 µM [inhibitor, full curve, poor fit] | – |
| Cc1ccc(-n2ncc3c(N4CCCCCC4)ncnc32)cc1 | inconclusive: 0.282 µM [inhibitor, full curve, poor fit] | – |
| CCn1ncc(CN2CCCC(C(=O)c3cccc(OC(C)C)c3)C2)c1C (stereo not given) | inconclusive: 8.91 µM [inhibitor, partial curve, poor fit] | – |
| CN(c1ccccc1)S(=O)(=O)c1cccc(C(=O)NCc2ccccc2)c1 | inconclusive: 12.6 µM [inhibitor, single point] | – |
| CS(=O)(=O)c1ccc(Nc2nc(C(N)Cc3ccc(F)cc3)cs2)cc1 (stereo not given) | inconclusive: 25.1 µM [inhibitor, partial curve, poor fit] | – |
| O=C(NCc1ccccc1)Nc1cccn(Cc2c(F)cccc2Cl)c1=O | inconclusive: 5.01 µM [inhibitor, partial curve] | – |
| CC(C)C(NC(=O)C1CCCCC1)C(=O)Nc1ccc2c(c1)OCCO2 (stereo not given) | – | inactive: 0% |
| Cc1nn(S(=O)(=O)N2CCOCC2)c(C)c1Br | – | inactive: 10% |
| CCOc1nc(C)cc(C)c1S(=O)(=O)c1ccc(Cl)cc1 | inconclusive: 8.91 µM [inhibitor, partial curve, poor fit] | – |
| CC(C)c1ccc(NC2CCCN(C(=O)CCc3cnn(C)c3)C2)cc1 (stereo not given) | inconclusive: 15.8 µM [inhibitor, single point] | – |
| O=C(Nc1ccccc1N1CCCCC1)c1ccc(OC(F)F)cc1 | inconclusive: 6.31 µM [inhibitor, partial curve, poor fit] | – |
| Cc1cccc(CNC(=O)c2oc3c(c2C)-c2nn(Cc4ccccc4Cl)cc2CC3)c1 | inconclusive: 14.1 µM [inhibitor, partial curve, poor fit] | – |
| CC(C)(C)c1cc(C(=O)Nc2cccnc2)cc(C(=O)Nc2cccnc2)c1 | – | inconclusive: -35.1% [inhibitor] |
| COc1cccc(/C=N/Nc2cc(C)nc(-c3ccccc3O)n2)c1O | inconclusive: 5.62 µM [inhibitor, full curve, poor fit] | – |
| Cn1nc(-c2ccccc2)cc1NC(=O)c1ccc(Cl)cc1 | inconclusive: 10 µM [inhibitor, single point] | – |
| COc1ccc(-c2noc(N3CCC(C(=O)NC(C)c4ccccc4)CC3)n2)cc1 (stereo not given) | inconclusive: 7.08 µM [inhibitor, partial curve, poor fit] | – |
